Data taken from the RNAGym collection of RNA variant scans (doi:10.7554/elife.90254).
Read counts are not given, so values of variants with three or more changes are uncertain.

B1: LINE1-mini (parent)
chain: GGCAGAGCUCAACACAGCGUGGCAAAGUGGCUGUGGCUAGACUGCC

Variants of: B1
Test: self-cleavage, relative activity (ratio to wild type); higher = more cleavage; in vitro, sequencing; the parent is a self-cleaving ribozyme

Variant | self-cleavage
GCCAGAGCGCAACACGGAGUGGCAAAGUGGCUGUGGCUAGAUUGCC [G2C U9G A16G C18A C42U] | 0.01
GCCAGAGCUCAACACAGCGUUGCAAAGUUGCUGUGGCUAUACUGCC [G2C G21U G29U G40U] | 0.14
GCCAGAGCUCAACACAGCGUGGCAAAGUGGCUGUGGUUAAACUCCC [G2C C37U G40A G44C] | 0.08
GCCAGAGCUCAACACAGUGUGGCAAAGUGGUUGUGGCUAGACUGCC [G2C C18U C31U] | 0.02
GCCAGAGCUCAACACAGAGGGGCAAAGUGGCUGUGGCUAAACUGCC [G2C C18A U20G G40A] | 0
GCCAGAGCACAACACAGCGUGGCAAAGUGGCUGUGUCUAGAAUGCC [G2C U9A G36U C42A] | 0.03
GCCAGAGCACAACACAGCGUGGCAACGUGGCUGUGGCUAGACUGCC [G2C U9A A26C] | 0.02
GCCAAAGCUCAACACAGCGUGGCAAAGUGGCUGUGGCUAGACUGAC [G2C G5A C45A] | 0.04
GCCAGAGCUCAACACAGCGUGGCAAAGUGGCUGUGGCUAGACUAGC [G2C G44A C45G] | 0.09
GCCAGAGCCCAACACAGCGUGUCAAAGUGGCUGUGGCUAGACUGGC [G2C U9C G22U C45G] | 0.07
GCCAGACCUCAAUCCAGAGUGGCAAAGUGGCUGUGGCUAGACUGCC [G2C G7C C13U A14C C18A] | 0.01
GCCAGAGCUCAACACAGCAUGGCAAAGUGGCUGGGGCUAGACUGCC [G2C G19A U34G] | 0.03
GCCAGAGCUCAACACAGCGUGGCAAAGUGGCAGUGGCUAGACAGCC [G2C U32A U43A] | 0
GCCAGAGCUCAACACAGCGUGGUAAAGAGGCUGGUCCUAGACUGCC [G2C C23U U28A U34G G35U G36C] | 0.09
GCCAGAGCUCAACACAGCGUGGCAAAGUGGCGGUGGCUAGACCGCC [G2C U32G U43C] | 0.02
GCCAGAGCUCAACACAGCGGCGCUAUUUGGCUGUGGCUAAACUGCC [G2C U20G G21C A24U A26U G27U G40A] | 0.01
GCCAGAGCUCAACACAACGUGGCAAAGUGGCUGUGGCUAGACUCCC [G2C G17A G44C] | 0.03
GCCAGAGCUCAACAUAGCGUGGCAAAGUGGCUGUUGCUAGACUGCC [G2C C15U G35U] | 0.04
GCCAGAGCUCAACAUAGUGUGGCAAAGUAGCUGUGGCUAGACUGCC [G2C C15U C18U G29A] | 0.01

Variant | self-cleavage
GCCAGAGCUCAACACAGCGUGGCAAAGUGUCUGUGGCUAAACUGCC [G2C G30U G40A] | 0.06
GCCAGAGCUCAACACAGCUUGGCAAGGUGGCUGUGGCUAGACUGCC [G2C G19U A26G] | 0.04
GCCAGAGCUCAACACAGCGUGGGAAAUUGGCUGAGGCUAGACUGCC [G2C C23G G27U U34A] | 0.09
GCCAGAGCUCAACACAGCCUGGCAAAGUGGCUGUGGCUAGACAGCC [G2C G19C U43A] | 0.08
GCCACAGCUCAACAUAGCGUCGCAAAGUGGCUUUGGCUAGACUGUC [G2C G5C C15U G21C G33U C45U] | 0.25
GUCCGAGCUCAACAUAGCGUGCUAAAGUGGCUGUGGCUAGACUGCC [G2U A4C C15U G22C C23U] | 0.08
GCCAGAGCUCAACACAGCGUGGCAAAGUGGCUGUGGGUCGAUUGCC [G2C C37G A39C C42U] | 0.04
GCCAGAGCUCAACACAGCGUGGCAAAGUGGCUGUUGAUAGACUGCC [G2C G35U C37A] | 0.08
GCCAGAGCUCAACACAGCGUGGAAAAGUGGCUUUGGCUAGACUGCC [G2C C23A G33U] | 0.1
GCCAAGGCUCUACACAGCGUGGCAAAGUGACUGUGGCUAGACUGCC [G2C G5A A6G A11U G30A] | 0.02
GCCAGAGCUCAACACAUCGUGUCAAAGUGGCUGUGCCUAGACUGCC [G2C G17U G22U G36C] | 0.01
GCCAGAGCUCAACACAGGGUGGCAAAGUGGCUGUGUCUAGACUGAC [G2C C18G G36U C45A] | 0.04
GCCAGAAGUCAACACCGCGUGGCCAAGUGGCUGUGGCCAGACUGCC [G2C G7A C8G A16C A24C U38C] | 0.08
GCCAGAGCCCAACACAGGGUGGCAAAGUGGCUGUGGCUAGACUGCC [G2C U9C C18G] | 0.07
GCCAGAACACAAUACAGCGUAGCAAAGUGGCUGUGGCUAGACUGCC [G2C G7A U9A C13U G21A] | 0.41
GCCAGAGCACAACACAGCGUCGCAAAGUGGCUGUGGCAAGACUGCC [G2C U9A G21C U38A] | 0.05
GCCAGAACUGAAUACUGCGUGGCAAAGUGGCUGUGGCUAGAUGGCC [G2C G7A C10G C13U A16U C42U U43G] | 0.01
GCCAGAGCUCAACACAUCGUGGCAAAGUGUCCGUGGCUAGACUGCC [G2C G17U G30U U32C] | 0.24
GCCAGAGCUCAACACAGGGUGGCAAAGUGGCUGUCGCUAGACUGCC [G2C C18G G35C] | 0.06

Variant | self-cleavage
GCCAGAGCUCAACACAUCGUGGCAAAGUGGCUGUUGCUAGACUGCC [G2C G17U G35U] | 0.06
GCCAGAGCUCAACACAGCGCGGCAAAGUGGCUAUGGCUACAGUGCC [G2C U20C G33A G40C C42G] | 0.02
GCCAGAACUCAACACAGCGUGGCAAAGUGGCUCUGGCUAGACUGCC [G2C G7A G33C] | 0.27
GCCACAGCUUAACACAGCGUGGGAAAGUGGUUGUGGCUAGAAUGCC [G2C G5C C10U C23G C31U C42A] | 0.01
GCCAGAGCUCAACACAGCGUGGCAAAGUGGCUGUGGCUAAACUUCC [G2C G40A G44U] | 0.2
GCCAGACCUCAACACAACGUGGCCAAGUGGCUGUGGCUAGACUGCC [G2C G7C G17A A24C] | 0.05
GCCAGAGCUCAACACAGCCUGGCAAAGUGACUGUGGCUAUACUGCC [G2C G19C G30A G40U] | 0.05
GCCAUAGCUCAACACAGUGUGGCAAAGUGGCUAUGGCUAUACUGCC [G2C G5U C18U G33A G40U] | 0
GCCAUAGCUCAAAACAGCGUGGCAAAGUGGUUGUGGCUAGACUGCC [G2C G5U C13A C31U] | 0.03
GCCAUAGCUCAACACAGCGUGGCAAAGUGGCUGUGGCUAGACUGAC [G2C G5U C45A] | 0.02
GCCAGAGCUCAACACAGCGUGGCAAAGUGUAUGUGGCUAGACUGCC [G2C G30U C31A] | 0.11
GCCAGAGCUCAACACAGCGCGGCAAAGUGGCUGUGACUAGACUGCC [G2C U20C G36A] | 0.13
GCCAGAGCUCAACAUAGCGUGGCAAAGUGGCUGAGACUAGACUUCC [G2C C15U U34A G36A G44U] | 0.05
GCCAAAGCUCAACAGAACGUGGCAAAGUGGCUGUGGCUAGACUGCC [G2C G5A C15G G17A] | 0.03
GCCAGAGCUCAACACAGCGGAGCAAAGUGGCUGUGGCUAGACUGCC [G2C U20G G21A] | 0.56
GCCAGAGCUCAACACAGCGAGGCAAAGUGGCUUUGGCUAGACUGCC [G2C U20A G33U] | 0.06
GCCAGACCUCAACACAGGGUGGCAAAGUGGCUGUGGCUAGACUGCC [G2C G7C C18G] | 0.03
GCCAGAGCUCAACACAGCUUCGCAAAGUGGCUAAGGCGCGACUGCC [G2C G19U G21C G33A U34A U38G A39C] | 0.02
